Over roughly 110,000 compounds, “z-score” has its median near -0.1; the highest 2% begin near 2. The list shows a part of the results.

For this experiment, the target named is Metabotropic glutamate receptor 8 (Rattus norvegicus) (UniProt P70579). Nature of the experiment: rat mGluR8 modulators via GIRK flux, primary screen, cell-based, thallium flux, HTS (AID 488969). Conditions: HEK293 rat mGluR8, GIRK (G protein-gated inwardly rectifying potassium channel) thallium flux, FluoZin2; at 10 µM; stronger effect = higher value; submaximal glutamate (EC20) added with thallium.
UniProt P70579, sequence (P70579 whole entry, looked up): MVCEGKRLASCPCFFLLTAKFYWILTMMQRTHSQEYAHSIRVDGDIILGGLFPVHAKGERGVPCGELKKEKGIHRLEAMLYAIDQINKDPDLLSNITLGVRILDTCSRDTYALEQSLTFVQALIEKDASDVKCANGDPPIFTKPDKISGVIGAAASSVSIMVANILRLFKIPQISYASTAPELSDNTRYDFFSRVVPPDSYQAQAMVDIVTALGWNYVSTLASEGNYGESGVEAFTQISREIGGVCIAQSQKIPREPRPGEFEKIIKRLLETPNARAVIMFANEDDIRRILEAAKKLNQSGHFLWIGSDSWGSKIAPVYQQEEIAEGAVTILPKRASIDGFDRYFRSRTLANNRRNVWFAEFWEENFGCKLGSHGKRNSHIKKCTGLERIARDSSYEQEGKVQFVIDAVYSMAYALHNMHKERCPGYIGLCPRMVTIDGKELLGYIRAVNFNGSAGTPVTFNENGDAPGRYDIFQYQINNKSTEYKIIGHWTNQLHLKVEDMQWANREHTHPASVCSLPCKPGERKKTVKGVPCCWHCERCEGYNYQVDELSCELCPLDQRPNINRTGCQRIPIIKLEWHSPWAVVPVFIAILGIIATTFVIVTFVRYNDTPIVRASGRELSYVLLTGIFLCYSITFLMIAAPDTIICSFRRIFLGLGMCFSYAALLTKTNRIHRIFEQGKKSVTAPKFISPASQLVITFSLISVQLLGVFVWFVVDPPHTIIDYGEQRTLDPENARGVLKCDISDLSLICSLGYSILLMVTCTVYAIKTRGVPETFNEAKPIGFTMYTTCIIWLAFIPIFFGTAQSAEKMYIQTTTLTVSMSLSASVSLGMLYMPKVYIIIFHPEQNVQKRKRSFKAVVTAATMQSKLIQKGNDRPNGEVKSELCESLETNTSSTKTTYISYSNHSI
Take `CCOc1ccc(NCC2CCOC(C)(C)C2)cc1` (stereo not given): the z-score came out at 0.172.
`O=C(/C=C/c1ccc(Cl)c([N+](=O)[O-])c1)Nc1ccc(N2CCCC2)c(Cl)c1` showed a z-score of -0.0736.
For `CSc1nc(-c2ccccc2)nc(N)c1C(C)=O` the value was -0.0854.
Molecule `CCC1CCCCN1C(=S)Nc1ccc(C(C)=O)cc1` (stereo not given) came in with a z-score of -0.196.
Take `O=C(NC(=S)NNC(=O)c1ccccc1O)c1ccco1`: the z-score was determined as 0.576.
Next, `C=CCN1C(=O)C(Cc2ccc(OCC)cc2)S/C1=N\N=C\c1cccs1` (stereo not given): 0.126; `Cc1ccc(N2CCN(C3=NC(=O)/C(=C\c4cccs4)S3)CC2)cc1`: -0.279.
On to `Cn1c(C(=O)NC2CCCCC2)cc2c(=O)n(C)c3ccccc3c21`, for which the z-score is -1.32.
For `O=C(CSc1n[nH]c(-c2ccncc2)n1)Nc1ccccn1` the value was -0.983; for `NC(=O)C1CCN(CCC(=O)Nc2ccc3c(c2)CCC3)CC1`, 0.152.
For `CC(=O)c1ccc(OCC(O)CN(C)Cc2cccs2)cc1` (stereo not given) the value was -0.147.
For `CCc1nc(NCCCCCO)c2nnn(Cc3ccccc3F)c2n1` the value was -0.538.
Turning to `O=C(CN1CCN(Cc2ccccc2)CC1)N=Nc1c(O)[nH]c2ccccc12`, the z-score is -0.328.
With `CCCCCCCOC(=O)c1nc(Cl)c(Cl)c(N)c1Cl`, the z-score was -0.235.
As to `O=C(NCCCN1CCOCC1)c1ccc(Sc2ccc(F)cc2)c([N+](=O)[O-])c1`, the z-score was -0.511.
For `Cc1cc(C)c(S(=O)(=O)N(C)Cc2cnn(C)c2)c(C)c1` the value was -0.2.
`Cc1cc(C)n(CC(O)CN2c3ccccc3Sc3ccccc32)n1` (stereo not given) showed a z-score of -0.144.
`O=C(NCC(=O)N(Cc1cccs1)C(C(=O)NC1CCCC1)c1ccco1)c1cccs1` (stereo not given) registered a z-score of 0.741.
Molecule `Cc1cnc(C(=O)Nc2ccccc2-n2cccc2)cn1` yielded a z-score of 1.34.
As for `Cn1c(C(=O)OC(C(=O)NC2CCCCC2)c2ccccn2)cc2sccc21` (stereo not given), the z-score is -0.474.
On to `O=S(=O)(Nc1cccnc1)c1cccc(C(F)(F)F)c1`, for which the z-score amounted to 0.171.
Next, `O=C(NCC1CCCO1)C1CC(c2ccc(Cl)c(Cl)c2)=NO1` (stereo not given): -0.164; `CS(=O)(=O)Nc1ccc(C(=O)N2CCN(c3ccccc3)CC2)cc1`: 0.105.
Next, `O=C(Nc1ccccc1)/C(=C/c1ccc2c(c1)OCO2)NC(=O)c1ccco1`: -0.0767.
Regarding `O=C1C2CC=C(Cl)CC2C(=O)N1CC1Cc2ccccc2CO1` (stereo not given), the z-score was -0.392.
Next, `Cc1cc(NC(=O)CSc2nc3sc4c(c3c(=O)n2C)CCCC4)no1`: 0.943.
Turning to `CN1C(=O)C(CC(N)=O)N(NC(=O)c2ccc(Cl)cc2)C1=S` (stereo not given), the z-score is -0.0248.
For `C=CCn1c(COc2ccccc2-c2ccccc2)nnc1SCC(=O)NC(=O)NCc1ccco1` the value was -0.409; for `COc1cc(NC(=O)c2ccccc2NS(=O)(=O)c2ccc(Cl)s2)cc(OC)c1`, 0.654.
Next, `O=C1CCCC2=C1C(c1ccsc1)CC(=O)N2c1nnc(SCc2ccccc2)s1` (stereo not given): -0.68.

For the origin of these results see PubChem BioAssay AID488969 (Vanderbilt High Throughput Screening Facility, 2010).
